What all share (assay): uncleaved DNA left, log2 of reads against the no-enzyme library (log2 ratio); higher = less cleavage (more negative = more Rep cleavage of the k-mer); sequences stand for … in CTCGTCCG…ACCGGAGA
Assay [1] concerns T1, Rep nickase domain of Muscovy duck circovirus.
T1 sequence (residues 1-111 of Rep, tag left off): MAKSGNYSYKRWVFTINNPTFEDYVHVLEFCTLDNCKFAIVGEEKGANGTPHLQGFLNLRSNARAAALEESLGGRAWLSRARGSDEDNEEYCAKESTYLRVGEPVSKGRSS
As to the method:
(§1)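 A pool of 90-nt single-stranded DNAs with seven random bases just before the constant AC of the nick site (name = the seven bases) was cut by 3 µM recombinant His6-SUMO-tagged Rep nickase domain (300 nM DNA, 50 mM HEPES pH 8.0, 50 mM NaCl, 1 mM MnCl2, 1 h, 37 °C, three replicates). Uncut DNA was amplified and sequenced.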

The test system of assay [2] is T2, Rep nickase domain of banana bunchy top virus.
T2 sequence (residues 1-94 of Rep, tag left off): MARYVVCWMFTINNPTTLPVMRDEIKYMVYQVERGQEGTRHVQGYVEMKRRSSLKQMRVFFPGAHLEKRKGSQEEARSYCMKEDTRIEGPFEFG
As to the method:
as §1

Assay [3] has as its system T3, Rep nickase domain of cabbage leaf curl virus.
T3 sequence (residues 1-116 of Rep, tag left off): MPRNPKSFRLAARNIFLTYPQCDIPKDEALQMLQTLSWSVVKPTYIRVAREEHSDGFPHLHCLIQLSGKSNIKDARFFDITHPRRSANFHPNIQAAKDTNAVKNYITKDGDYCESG
As to the method: as §1
Assay [4] has as its system T4, Rep nickase domain of chickpea chlorotic dwarf virus.
T4 sequence (residues 1-124 of Rep, tag left off): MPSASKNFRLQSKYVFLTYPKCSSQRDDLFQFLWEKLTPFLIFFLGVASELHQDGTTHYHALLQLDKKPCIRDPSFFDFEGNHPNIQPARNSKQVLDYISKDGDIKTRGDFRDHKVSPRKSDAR
Here is the method: as §1
Assay [5] relates to T5, Rep nickase domain of faba bean necrotic yellows virus.
T5 sequence (residues 1-98 of Rep, tag left off): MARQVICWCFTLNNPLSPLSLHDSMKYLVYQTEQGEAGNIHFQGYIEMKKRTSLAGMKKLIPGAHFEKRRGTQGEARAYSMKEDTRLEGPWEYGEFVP
Here is the method:
as §1

Assay [6] deals with T6, Rep nickase domain of maize striate mosaic virus.
T6 sequence (residues 1-117 of Rep, tag left off): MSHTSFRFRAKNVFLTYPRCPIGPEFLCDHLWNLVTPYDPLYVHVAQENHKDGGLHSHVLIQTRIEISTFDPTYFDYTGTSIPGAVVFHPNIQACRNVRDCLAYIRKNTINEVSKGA
As to the method:
as §1

Assay [7] concerns T7, Rep nickase domain of porcine circovirus 2.
T7 sequence (residues 2-116 of Rep, tag left off): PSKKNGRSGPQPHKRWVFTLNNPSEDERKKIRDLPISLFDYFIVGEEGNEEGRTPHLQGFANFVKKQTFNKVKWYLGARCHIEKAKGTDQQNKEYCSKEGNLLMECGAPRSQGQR
Here is the method:
as §1

In assay [8] the test system is T8, Rep nickase domain of tomato golden mosaic virus.
T8 sequence (residues 1-124 of Rep, tag left off): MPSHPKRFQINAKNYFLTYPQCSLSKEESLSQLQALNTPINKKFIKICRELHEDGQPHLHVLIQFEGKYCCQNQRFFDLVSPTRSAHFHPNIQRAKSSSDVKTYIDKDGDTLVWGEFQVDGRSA
Here is the method: as §1
In assay [9] the test system is T9, Rep nickase domain of tomato yellow leaf curl virus.
T9 sequence (residues 1-136 of Rep, tag left off): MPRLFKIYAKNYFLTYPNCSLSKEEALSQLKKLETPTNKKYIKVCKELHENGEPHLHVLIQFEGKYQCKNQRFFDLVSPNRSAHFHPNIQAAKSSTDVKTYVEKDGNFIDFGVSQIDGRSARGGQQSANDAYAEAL
Here is the method:
as §1

Assay [10] deals with T10, Rep nickase domain of wheat dwarf virus.
T10 sequence (residues 1-137 of Rep, tag left off): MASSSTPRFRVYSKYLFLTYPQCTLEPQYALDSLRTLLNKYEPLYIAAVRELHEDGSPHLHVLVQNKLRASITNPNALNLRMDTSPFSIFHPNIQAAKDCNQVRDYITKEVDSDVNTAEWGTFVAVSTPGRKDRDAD
As to the method: as §1

This is one part of the list. The data describe in vitro nicking of single-stranded DNA by Rep domains for 1 h at 37 °C with 3 µM enzyme; only the middle of the 90-letter strands is printed. Values are log2 of uncut reads against the no-enzyme pool; uncut sequences lie near 0, cut ones below; no hit call is given. Reads are scaled to the total; uncut strands gain when others are lost, and binding without cutting may add a little.

Take TCCCTAA: the “uncleaved DNA left (log2)” value in assay [1] was 0.149; in assay [2], 0.0311; in [3], 0.25; in [4] it was -0.133; in [5], 0.12; in assay [6], -0.183. Besides, the “uncleaved DNA left (log2)” value is -0.00777 in [7], 0.0548 in [8], -0.13 in assay [9] and 0.159 in [10].

Turning to TCCAGCC, the “uncleaved DNA left (log2)” value in assay [1] was 0.00107; in assay [2], 0.0392; in assay [3], -0.0979; in assay [4], -0.392; in [5], 0.0582; in assay [6], -0.838. Moreover, the “uncleaved DNA left (log2)” value is 0.0103 in assay [7], -0.0506 in assay [8], -0.0676 in [9] and -0.0253 in assay [10].

Turning to TGACAAA, the “uncleaved DNA left (log2)” value is 0.0858 in assay [1]; 0.173 in [2]; 0.476 in [3]; 0.792 in [4]; 0.0742 in assay [5]; 0.788 in [6]. Moreover, the “uncleaved DNA left (log2)” value in assay [7] came to 0.196; in [8], 0.163; in [9], 0.0489; in assay [10], 0.272.

With GACGTCC, the “uncleaved DNA left (log2)” value in [1] is -0.119; in [2], -0.00933; in [3], 0.0621; in assay [4], 0.407; in assay [5], -0.0581; in assay [6], 0.427. Besides, the “uncleaved DNA left (log2)” value in assay [7] was -0.061; in assay [8] it was -0.129; in assay [9], -0.0422; in assay [10] it was -0.00165.

GCACTCT: the “uncleaved DNA left (log2)” value in [1] is -0.102; in assay [2], -0.0736; in [3] it was -0.28; in assay [4] it was -1.72; in [5] it was -0.155; in [6], -0.178. Moreover, the “uncleaved DNA left (log2)” value in [7] was -0.0899; in [8] it was -0.134; in assay [9], -0.147; in [10], -0.0791.

As for TCCAAGC, the “uncleaved DNA left (log2)” value in assay [1] was -0.0889; in assay [2], -0.0434; in assay [3], 0.239; in assay [4], 0.768; in [5], -0.0322; in assay [6], 0.523. In addition, the “uncleaved DNA left (log2)” value in [7] is 0.237; in assay [8], 0.0151; in assay [9], -0.0659; in [10], -0.0635.

Turning to GTAACTT, the “uncleaved DNA left (log2)” value in assay [1] is -0.0292; in assay [2] it was 0.0924; in [3] it was 0.198; in [4], 0.61; in assay [5], -0.0796; in [6], 1.75. Also, the “uncleaved DNA left (log2)” value in [7] was determined as 0.0202; in assay [8], 0.00233; in assay [9] it was 0.0514; in assay [10], 0.0786.

Turning to CGTGTCG, the “uncleaved DNA left (log2)” value is -0.0294 in assay [1]; -0.235 in assay [2]; -0.816 in assay [3]; -0.288 in assay [4]; -0.182 in assay [5]; -0.924 in assay [6]. Further, the “uncleaved DNA left (log2)” value in [7] is 0.0619; in assay [8], -0.285; in assay [9], -0.07; in assay [10], -0.138.

AATTTTC: the “uncleaved DNA left (log2)” value was -1.46 in assay [1]; -0.419 in [2]; -0.0433 in assay [3]; -0.954 in [4]; -0.00956 in [5]; -0.785 in assay [6]. The “uncleaved DNA left (log2)” value is -0.999 in assay [7], -0.0933 in assay [8], -0.00908 in assay [9] and 0.0881 in assay [10].

As to CTTGGAC, the “uncleaved DNA left (log2)” value in assay [1] was -0.0479; in assay [2], -0.0987; in assay [3] it was 0.329; in assay [4] it was 1.19; in [5], -0.103; in assay [6], 1.08. The “uncleaved DNA left (log2)” value in assay [7] was 0.199; in assay [8] it was -0.0649; in assay [9] it was 0.0504; in assay [10], 0.0116.

As to TATATCG, the “uncleaved DNA left (log2)” value in assay [1] was 0.116; in assay [2] it was -0.0643; in assay [3], -0.937; in [4] it was -0.277; in [5], 0.055; in [6], -1.09. Further, the “uncleaved DNA left (log2)” value in assay [7] was 0.109; in assay [8], -0.0909; in assay [9], -0.0412; in assay [10], -0.106.

Take AGCTCTC: the “uncleaved DNA left (log2)” value in assay [1] is -0.0742; in assay [2], 0.0235; in [3], 0.205; in assay [4], 0.32; in assay [5] it was -0.104; in assay [6], 0.202. Also, the “uncleaved DNA left (log2)” value is -0.137 in assay [7], -0.0477 in assay [8], -0.0491 in assay [9] and -0.00322 in [10].

GTTAAGT: the “uncleaved DNA left (log2)” value in assay [1] amounted to 0.0996; in assay [2], 0.038; in [3], 0.234; in [4] it was 0.64; in assay [5], 0.0146; in assay [6], 0.964. Moreover, the “uncleaved DNA left (log2)” value in assay [7] was 0.0984; in assay [8], 0.116; in assay [9] it was 0.0611; in assay [10], -0.0487.

With GACATCC, the “uncleaved DNA left (log2)” value was -0.0689 in [1]; 0.0261 in assay [2]; 0.567 in [3]; 1.24 in assay [4]; -0.111 in assay [5]; 1.68 in assay [6]. Further, the “uncleaved DNA left (log2)” value in [7] was 0.113; in [8], -0.144; in assay [9] it was -0.0181; in [10] it was 0.111.

For TAAATGC, the “uncleaved DNA left (log2)” value in assay [1] is 0.0896; in [2], 0.0621; in [3], -0.778; in [4], -1.83; in [5] it was 0.0346; in [6], -1.21. For the same sequence, the “uncleaved DNA left (log2)” value is 0.143 in [7], 0.0947 in [8], 0.203 in [9] and -0.0468 in assay [10].

The values above are taken from the supplement of paper PMC7826260.
